Whole data set: some 110,000 compounds, median “z-score” near -0.1, cut for the highest 2% near 2. This is one part of the list.

The target of this test is Metabotropic glutamate receptor 8 (Rattus norvegicus) (UniProt P70579). The test is described as follows: rat mGluR8 modulators via GIRK flux, primary screen, cell-based, thallium flux, HTS (AID 488969). The settings on record: HEK293 rat mGluR8, GIRK (G protein-gated inwardly rectifying potassium channel) thallium flux, FluoZin2; at 10 µM; stronger effect = higher value; submaximal glutamate (EC20) added with thallium.
UniProt P70579, sequence (P70579 whole entry, looked up): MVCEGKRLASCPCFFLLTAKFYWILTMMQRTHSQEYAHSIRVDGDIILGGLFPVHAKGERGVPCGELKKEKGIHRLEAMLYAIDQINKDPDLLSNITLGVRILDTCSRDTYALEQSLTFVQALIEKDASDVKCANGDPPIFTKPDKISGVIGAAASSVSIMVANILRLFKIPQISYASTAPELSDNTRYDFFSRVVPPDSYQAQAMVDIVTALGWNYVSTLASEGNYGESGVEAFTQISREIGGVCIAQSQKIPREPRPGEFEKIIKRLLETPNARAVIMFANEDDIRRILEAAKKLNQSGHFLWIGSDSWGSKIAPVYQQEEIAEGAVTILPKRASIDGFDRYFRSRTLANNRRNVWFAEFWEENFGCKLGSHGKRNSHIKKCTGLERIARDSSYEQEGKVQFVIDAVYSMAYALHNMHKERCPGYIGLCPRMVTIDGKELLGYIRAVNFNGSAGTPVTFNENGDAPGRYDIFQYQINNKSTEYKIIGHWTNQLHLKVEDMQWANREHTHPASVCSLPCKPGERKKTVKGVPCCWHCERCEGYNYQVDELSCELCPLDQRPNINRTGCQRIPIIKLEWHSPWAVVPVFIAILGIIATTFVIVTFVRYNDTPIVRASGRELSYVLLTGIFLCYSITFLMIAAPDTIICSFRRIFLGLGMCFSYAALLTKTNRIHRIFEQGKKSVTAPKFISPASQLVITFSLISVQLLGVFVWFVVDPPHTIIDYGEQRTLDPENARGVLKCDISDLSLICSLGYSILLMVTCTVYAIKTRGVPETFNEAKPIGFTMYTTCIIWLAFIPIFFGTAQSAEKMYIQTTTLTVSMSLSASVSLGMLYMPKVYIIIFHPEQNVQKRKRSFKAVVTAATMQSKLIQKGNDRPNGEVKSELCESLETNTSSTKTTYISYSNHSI
On to `Cc1ccccc1OCC(=O)N/N=C/c1ccc(Sc2nc3ccccc3s2)o1`, for which the z-score is -0.0814.

As for `Cc1cc(C)n(Cc2ccc(C(=O)NCc3ccco3)o2)n1`, the z-score is -0.366.

In the case of `O=C(Nc1ccccc1N1CCCC1)c1ccc2c(c1)OCO2`, the z-score is -0.236.

Compound `Nc1nc2nc(-c3ccccc3)cc(=O)n2[nH]1` yielded a z-score of 0.205.

`O=C1Nc2ccccc2C12OCC(COc1ccc(Cl)cc1)O2` (stereo not given) had a z-score of 0.176.

Compound `O=C(O)Cc1ccc(-c2ccccc2-c2ccccc2)cc1` yielded a z-score of 0.095.

For `CCC/C(C)=N/NC(=O)c1ccccc1O`, the z-score is -0.182.

In turn, `N#CC(C(=O)NCc1ccco1)c1nc2ccccc2nc1N1CCOCC1` (stereo not given) gave a z-score of 0.555.

`O=C(CCN1C(=O)/C(=C\c2ccccc2Cl)SC1=S)N1CCN(c2ccccc2)CC1` displayed a z-score of 0.479.

`Cc1cc(C(=O)Nc2sc(C)c(-c3ccc(F)cc3)c2C(N)=O)no1`: the z-score amounted to 0.0342.

Take `COc1cccc(-c2cc(C(=O)NCC3CCCO3)c3ccccc3n2)c1` (stereo not given): the z-score was determined as 0.539.

In the case of `Cn1cccc1Cc1nnc(SCC(=O)NC2CCCC2)n1CCc1ccccc1`, the z-score was -0.147.

As for `COc1ccc2c(c1)C1=NN(/C(C)=C/C(C)=O)C(c3ccc(F)cc3)C1CC2` (stereo not given), the z-score was -0.895.

In the case of `CC(C)(C)c1cc(NC(=O)c2cccc(S(=O)(=O)N3CCOCC3)c2)no1`, the z-score is -0.0985.

Turning to `CCc1nnc(NC(=O)CSc2nnc(-c3ccccc3OC)n2-c2ccc(C)cc2)s1`, the z-score worked out at 0.391.

Turning to `Cn1c(COc2ccccc2)nnc1SCC(=O)c1cccc([N+](=O)[O-])c1`, the z-score amounted to 0.0138.

In the case of `CCc1cccc(C)c1NC(=O)CSc1nnc(-c2cc3cc(Br)ccc3o2)n1CC`, the z-score is -0.188.

As for `CCOC(=O)N1CCN(C(=O)CCCn2c(=S)[nH]c3ccc(Br)cc3c2=O)CC1`, the z-score turned out to be 1.24.

Consider `O=C(c1ccco1)N1CCN(C(=O)c2cccs2)CC1`, for which the z-score was -0.0296.

Turning to `COC(=O)C12CCC3(SCCS3)C(C(=O)OC)(CCC13SCCS3)C2`, the z-score was -0.3.

For `Cc1onc(-c2ccccc2Cl)c1C(N)=O`, the z-score was -0.305.

In the case of `Cc1cccnc1NC1(C(F)(F)F)N=C(c2ccccc2)NC1=O` (stereo not given), the z-score was -0.123.

Consider `CNC(=O)c1cc2cccc(OC)c2oc1=O`, for which the z-score is -0.116.

On to `Oc1c(C(c2ccccc2)N2CCN(Cc3ccccc3)CC2)sc2ncnn12` (stereo not given), for which the z-score was -0.0198.

Turning to `CSC1=N/C(=C\c2cccnc2)C(=O)N1c1ccccc1`, the z-score was -0.343.

On to `Cc1ccc(C)c(-c2cc(C(=O)Nc3nccs3)c3ccccc3n2)c1`, for which the z-score turned out to be 0.141.

On to `Cc1c(NS(=O)(=O)c2ccc(NC3CCCC3)c([N+](=O)[O-])c2)c(=O)n(-c2ccccc2)n1C`, for which the z-score was -0.337.

On to `Cn1c(Cc2ccccc2)nnc1SCC(=O)NC1CCCCC1`, for which the z-score was 0.0891.

On to `Nc1nc(NCC2CCCO2)nc(Nc2ccc(F)cc2)c1[N+](=O)[O-]` (stereo not given), for which the z-score is -0.352.

Turning to `CC1CCc2c(sc3nc4n(c(=O)c23)CCS4)C1` (stereo not given), the z-score was -0.0157.

The record behind these values is PubChem BioAssay AID488969 (Vanderbilt High Throughput Screening Facility, 2010).
